Assay results published in the supplement of paper PMC5499739.
Whole data set: some 16,000 sequences, median “Z-score” near -0.37, cut for the highest 2% near 3.2. The list shows a part of the results.

Tested on: RBM10 RRM1-ZnF (GST-tagged construct)
Assay: RNAcompete 7-mer binding Z-score; higher = stronger binding preference
Protocol: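 RNAcompete: 20 pmol GST-tagged RBM10 RNA-binding constructs were incubated with a designed RNA pool of about 241,000 sequences up to 41 nt (1.5 nmol) on glutathione beads for 30 min at 4 °C and washed. Bound RNAs were identified by microarray hybridisation. Each RNA 7-mer is scored by a one-sided Z-score of its enrichment, computed over probes that contain the 7-mer within longer pool sequences.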

Sequence | RNAcompete 7-mer binding Z-score
GAAUACA | -0.155
GCAAAAU | -0.246
CGACUAC | -0.626
CACGACA | -0.386
UCUUUGA | -0.613
GCCUCUU | -0.844
ACAGUGC | 0.0333
AUGGAUC | 0.764
CUGCGAC | -0.526
CACCCUU | -0.847
UGAUCAG | 0.244
AGGUAUG | 2.16
AGAGGCG | 0.456
UUUCUAU | -0.75
UCGGCCC | -0.691
UCCACUC | -0.642
CUACUAG | -0.392
UUGGAGC | 1.36
CACUGAA | -0.386
UCUGACA | -0.662
CUCACGU | -0.6
UACUCGG | -0.386
AUAUGUG | 0.54

Sequence | RNAcompete 7-mer binding Z-score
CCUGCAA | -0.73
UCGCACA | -0.509
CGCGGUC | -0.249
CUUAGGU | -0.227
GGAUGAU | 1.79
UAGUUUU | -0.584
CUUCAAA | -0.704
GGCAUCA | 0.28
CAAUCUU | -0.87
CAGGUGC | 1.23
UUCUGCC | -0.928
GACCCAG | -0.448
CGCAAGU | -0.422
UUAUUAA | -0.607
GAUGCGU | 0.0658
ACCACUU | -0.701
CACACCU | -0.61
GCGGCGG | 2.08
UUUCAUU | -0.805
CUUUUAA | -0.779
GUGCAUC | -0.288
AUUCUUG | -0.831
AACUCUC | -0.753

Sequence | RNAcompete 7-mer binding Z-score
UUUUCGA | -0.678
CCCCGCA | -0.331
CCGUUUC | -0.928
GGUUCGG | 1.33
UCUUUUC | -0.821
UACUUCG | -0.652
UUGUUGU | -0.262
GUGAAUA | 0.313
AAUUCAU | -0.633
UCAAGUA | -0.405
CGUCCCU | -0.766
ACGAAUC | -0.5
AAAUUGU | -0.396
UUACUUC | -0.642
CCGAGGA | 0.53
CUAUUUU | -0.951
CGAGACC | -0.578
CUAUUCC | -0.844
UCGUACC | -0.665
UAGUUCU | -0.805
GUGAGGG | 3.75
UUUUACC | -0.941
AACCGAA | -0.529

Sequence | RNAcompete 7-mer binding Z-score
UUGGCAU | -0.262
GGAGCCG | 0.703
CAGUAUU | -0.646
UGACUUC | -0.688
UUGUGUG | 0.157
GAACCUC | -0.688
AAACUAA | -0.464
GAGGGUC | 1.44
CGAGGAG | 1.52
CUAUAUU | -0.668
UAACGGG | 2.01
ACUAUUG | -0.513
UUCGAUA | -0.642
GGUUACC | 0.605
GCAGCAU | -0.405
AACUACG | -0.295
AAUAACU | -0.565
CCUAAAC | -0.694
GCCGGGG | 1.37
AGAGCUC | -0.75
GUACUAU | -0.149
GCGAAAG | 0.677
UCCCAGC | -0.48

Sequence | RNAcompete 7-mer binding Z-score
UGGCAAG | 0.586
UCGAACU | -0.724
UCCACCC | -0.383
ACUAUGG | 0.566
UGAUACA | -0.155
ACUACAA | -0.623
CCUCGGA | -0.363
ACUCAGU | -0.659
GCAUGGC | 0.176
CUCACCU | -0.785
GAGCAGG | 2.82
CGCACUU | -0.74
ACGCCCC | -0.464
ACAUCAG | -0.376
GAUCAUG | 0.0333
UCUAACC | -0.766
UUAGUAU | -0.347
CGGAGCU | 0.423
AAAAACG | -0.0447
CGAGCAG | 0.618
UAAUUAU | -0.509
AGAGCUU | -0.646
CAUUACG | -0.412

Sequence | RNAcompete 7-mer binding Z-score
GAGCUUU | -0.571
UAAAUAU | -0.425
AACGAAU | -0.334
GAUAGGA | 2.86
UCAUUUA | -0.902
UCAAAUU | -0.613
GCAGUUC | -0.47
CAUUUCU | -0.974
AAUGUUG | 0.361
CUAAAGC | -0.73
CGCCAGU | -0.448
AGCGACU | -0.5
CGAUCUG | -0.591
AGCAGAU | 0.358
CAAUCCU | -0.899
GAGUAAG | 1.41
AAGUGGU | 1.82
AGAGUUU | -0.106
UAACCUC | -0.617
CGGGUUU | 1.44
UGUGGUU | 1.84
GGUCUGU | 0.196
CAGCCGA | -0.578

Sequence | RNAcompete 7-mer binding Z-score
GGGACAG | 2.78
UGAAAAC | -0.441
GUCCGAG | -0.22
UACCUCG | -0.659
CUCUAGU | -0.811
GCCGGUU | -0.0317
CGUUGUG | -0.0707
CACGAGU | -0.223
CUGGCCA | -0.529
CUAAAUC | -0.753
GCUCUCA | -0.529
CGCUUUA | -0.85
CCCGUUA | -0.626
UAAUUCC | -0.945
CCCCCAU | -0.448
GCCGGCA | -0.321
CCCACCA | -0.392
CUUUCUA | -0.88
AGGGGCG | 2.28
CUGUGGU | 0.449
AUAUGCG | 0.000789
CUGUUCA | -0.763
UUGCUGU | -0.444

Sequence | RNAcompete 7-mer binding Z-score
UGUAGGU | 1.75
CUAGGCU | -0.441
UUAGGGC | 1.17
CUGUUAU | -0.818
ACCACGC | -0.685
UUAGAUC | -0.474
AUUACGC | -0.386
CCCGAAA | -0.75
ACGGGGG | 3.27
UUAACUU | -0.737
GUGGCUA | 0.595
UGAGAAA | 0.118
AGUCUGU | -0.539
GAGGCUA | 0.115
UUGGGGU | 3.27
UUUUUAC | -0.73
AUGGGCU | 1.6
CGGAUCG | 0.472
UCUCCCA | -0.646
GUAUGGA | 2.12
UCGACUG | -0.581
AUGGGAU | 3.45
CUGCUGC | -0.435
